Source: PubChem BioAssay AID624296 (National Center for Advancing Translational Sciences (NCATS), 2012)
Screen size: about 350,000 compounds; about 9,900 (2.8%) were called active. The inconclusive results got no clear call from the source; some entries with a clear call stand among them for comparison. Calls follow the shape of the dose curve; as a rule, active = well fitted activation curve with a large enough effect; inconclusive = small, poorly fitted or top-dose-only effect; inactive = no such curve, though single readings can be large or run the other way. Potencies of inconclusive entries are left out as doubtful fits.

Assay: A quantitative high throughput screen for small molecules that induce DNA re-replication in MCF 10a normal breast cells. Also: nearly all actives have a fitted effect of over 50% in size. As to activity, positive = re-replication: % of control where 0% means no effect.
Details: MCF 10A DNA re-replication, Hoechst nuclear intensity, 48 h; activity, positive = re-replication: at 46.1 µM (top of the series)
Potency is read from the fitted curve at half-maximal effect; tags tell the direction and shape of the fitted curve.

Which activity, positive = re-replication does the source give for CN1CCN(C(=O)C2=C[C@H](c3coc4ccccc4c3=O)C[C@H](OCCCCO)O2)CC1 here?
The activity, positive = re-replication was inconclusive: 40.4% [activator].

For CC[C@@]1(C(=O)OC)N[C@H](CN(C)C(=O)c2ccc(F)cc2)[C@@H]2C(=O)N(C)C(=O)[C@@H]21, which “activity, positive = re-replication” value is on record?
The value was inactive: -1.47%.

For COc1cccc(/C=C2\C(=O)C(=O)c3ccccc32)c1, which Potency is on record?
Its Potency is inconclusive [activator, single point].

With COc1cccc2cc(C(=O)CS(=O)(=O)c3ccc(C)cc3)c(=O)oc12 as the compound, how does the Potency read?
The Potency was inconclusive [activator, single point].

For COc1ccc(-c2sc3ccccc3c2C#Cc2cncn2C)cc1, which Potency is on record?
Its Potency is inconclusive [activator, single point].

For Cc1ccc(Cl)cc1NC(=O)C1CC1c1ccccc1 (stereo not given), which “activity, positive = re-replication” value is on record?
The value was inactive: 27.6%.

For CCOc1ccc(-c2nnc(-c3ccccc3)o2)cc1, which Potency is on record?
Its Potency is inconclusive [activator, single point].

With CC1CCN(S(=O)(=O)c2cc(F)ccc2CN2C(=O)c3cccnc3C2=O)CC1 as the compound, how does the “activity, positive = re-replication” value read?
The value was inactive: -11.2%.

For CN1CCN(S(=O)(=O)c2ccc(Sc3nnnn3-c3ccccc3)c([N+](=O)[O-])c2)CC1, which Potency is on record?
Its Potency is active: 6.51 µM.

For N#C/C(=N\Nc1ccc(Cl)cc1)C(=N)N1CCCCCC1, which “activity, positive = re-replication” value is on record?
The value was inactive: 6.66%.

For CCCCNC(=O)O[C@H]1C[C@@H]2CCN3C(=O)CCC[C@H]([C@H]1Cc1ccccc1)[C@H]23, which “activity, positive = re-replication” value is on record?
Its value is inactive: 8.99%.

For C=C1CCN(C(C(=O)OC)C(C)C)S(=O)(=O)c2ccc(F)cc21 (stereo not given), which “activity, positive = re-replication” value is on record?
The value was inactive: -15.3%.

Which Potency does the source give for Cc1c(OCC(=O)N[C@@H](Cc2ccccc2)C(=O)O)ccc2c1oc(=O)c1ccccc12 here?
The Potency was inconclusive [activator, full curve, poor fit].

Which Potency does the source give for CCN(CC)S(=O)(=O)c1ccc(OCCNS(C)(=O)=O)cc1 here?
The Potency was inconclusive [activator, single point].

With COc1ccc(-n2c(=S)[nH]c3ncccc3c2=O)cc1 as the compound, how does the “activity, positive = re-replication” value read?
Its value is inactive: 2.95%.

Which “activity, positive = re-replication” value does the source give for COc1ccc(OC)c(/C=C/C(=O)OCC(=O)N2CCN(S(=O)(=O)c3ccc(C)cc3C)CC2)c1 here?
The value was inactive: 3.73%.

For O=C(CCCc1ccccn1)c1ccc(-c2ccccc2)cc1, which Potency is on record?
The Potency was inconclusive [activator, single point].

Which Potency does the source give for COC(=O)c1cc2c(ccn2-c2ccc(F)cc2)n1CC(C)C here?
Its Potency is active: 23.1 µM.

For Cn1nnnc1Sc1ncnc2scc(-c3cccc4c3sc3ccccc34)c12, which Potency is on record?
The Potency was inconclusive [activator, full curve, poor fit].

Which “activity, positive = re-replication” value does the source give for CCc1c(C)nc2c(-c3ccccc3OC)c(C)[nH]n2c1=O here?
The value was inactive: -1.15%.

With CCn1c(SC(=O)NC2CCCCC2)nnc1-c1cccs1 as the compound, how does the “activity, positive = re-replication” value read?
The value was inactive: 4.28%.

For Cc1ccc(C)c(NC(=S)Nc2ccc(S(=O)(=O)Nc3ncccn3)cc2)c1, which “activity, positive = re-replication” value is on record?
Its value is inactive: -2.98%.

For CCn1c(Cc2ccccc2)nnc1SCC(=O)NC1CCCC1, which Potency is on record?
The Potency was inconclusive [activator, single point].

Which Potency does the source give for CCN(CC)CCCNc1ncnc2scc(-c3ccc(F)cc3)c12 here?
Its Potency is inconclusive [activator, partial curve, poor fit].

For Cc1ccc(Nc2nc(N)nc(COC(=O)C3=COCCO3)n2)cc1, which “activity, positive = re-replication” value is on record?
Its value is inactive: 4.86%.

For CSc1ccccc1NC(=O)Nc1ccc(F)c(Cl)c1, which Potency is on record?
Its Potency is inconclusive [activator, partial curve].

With CCOCCCn1c(SCC(=O)Nc2ccc3[nH]c(=O)[nH]c3c2)nc2ccccc2c1=O as the compound, how does the “activity, positive = re-replication” value read?
Its value is inactive: 2.34%.

With O=S(=O)(NC1CCC(NS(=O)(=O)c2c(F)cccc2F)CC1)c1ccc2c(c1)OCCO2 (stereo not given) as the compound, how does the Potency read?
Its Potency is inconclusive [activator, full curve, poor fit].

With Cc1cccc(-c2nc(CSCC(=O)N3CCN(c4ccccn4)CC3)c(C)o2)c1 as the compound, how does the Potency read?
Its Potency is inconclusive [activator, partial curve, poor fit].

Which Potency does the source give for CCOC(=O)c1ccc(NC(=S)N(CCCN2CCN(CC)CC2)Cc2cccs2)cc1 here?
The Potency was inconclusive [activator, partial curve, poor fit].

For COc1ccc(S(=O)(=O)N2CCCCCC2)cc1C(=O)OCc1cccc(OC)c1OC, which Potency is on record?
Its Potency is inconclusive [activator, single point].

For O=C(Nc1ccc(Cl)cc1)Nc1nc(-c2sccc2Br)cs1, which “activity, positive = re-replication” value is on record?
Its value is inactive: 11.4%.

With CSc1snc(SCC(N)=O)c1C#N as the compound, how does the “activity, positive = re-replication” value read?
The value was inactive: 1.14%.

For COc1ccc(NC(=S)NNc2ccc([N+](=O)[O-])cc2S(=O)(=O)Nc2ccc(C)cc2C)cc1, which Potency is on record?
Its Potency is inconclusive [activator, single point].

For CCOC(=O)c1c(-c2ccccc2)oc2ccc(O)c(CN3CCOCC3)c12, which Potency is on record?
The Potency was inconclusive [activator, single point].

For CCCC(=O)Nc1nnc(SCC)s1, which Potency is on record?
The Potency was inconclusive [activator, partial curve].

With N#CC1=C(N)C(C#N)(C#N)C(c2cccnc2)C2CN(C(=O)OCc3ccccc3)CC=C12 (stereo not given) as the compound, how does the Potency read?
Its Potency is inconclusive [activator, single point].

With Cc1cccc2sc(NC(=O)CCNS(=O)(=O)c3cccs3)nc12 as the compound, how does the Potency read?
Its Potency is inconclusive [activator, partial curve, poor fit].

With CC(C)(C)c1ccc(-c2n[nH]c(=S)n2C2CCCC2)cc1 as the compound, how does the Potency read?
Its Potency is inconclusive [activator, partial curve].

For CCCCN(CCCNC(=O)c1ccc(CS(=O)(=O)c2c(Cl)cccc2Cl)o1)Cc1ccccc1, which “activity, positive = re-replication” value is on record?
The value was inactive: 13.2%.

For CCN(CC(=O)NCc1cccs1)C(=O)/C=C/c1cc(Br)ccc1OC(F)F, which Potency is on record?
Its Potency is inconclusive [activator, partial curve, poor fit].

With O=C1CC(N2CCN(Cc3ccc4c(c3)OCO4)CC2)C(=O)N1c1cccc(Cl)c1 (stereo not given) as the compound, how does the Potency read?
The Potency was inconclusive [activator, partial curve, poor fit].

For CO/N=C(\c1nonc1N)N1CCN(c2ccc(Cl)cc2[N+](=O)[O-])CC1, which Potency is on record?
Its Potency is inconclusive [activator, single point].

Which Potency does the source give for CCCCC(=O)Nc1cc(C(=O)NCCc2ccccc2)ccc1Cl here?
Its Potency is inconclusive [activator, single point].

With COc1cccc(C2=NN(C(=O)c3ccco3)C(O)(C(F)(F)F)C2)c1 (stereo not given) as the compound, how does the Potency read?
The Potency was inconclusive [activator, partial curve, poor fit].

Which Potency does the source give for COC(=O)C1=C(C(=O)OC)[C@@H]2N(C)c3ccccc3[C@@]23C[C@@H](C(=O)OC)N(C(=O)c2ccc(Br)cc2)C3=N1 here?
Its Potency is inconclusive [activator, partial curve, poor fit].

With N#Cc1c(NC(=O)CN2CCN(C(=O)c3ccco3)CC2)sc2c1CCCCC2 as the compound, how does the “activity, positive = re-replication” value read?
The value was inactive: 3.45%.

Which Potency does the source give for C/C(=N\NC(=O)c1c(Cl)cnn1C)c1cccc(NC(=O)COc2ccccc2)c1 here?
Its Potency is active: 16.4 µM.

Which Potency does the source give for COc1ccc2ccccc2c1/C=N/NC(=O)c1cccc(Br)c1 here?
Its Potency is inconclusive [activator, single point].

For CCOC(=O)c1c(NC(=O)CSc2n[nH]c(N)n2)sc(CC)c1C, which “activity, positive = re-replication” value is on record?
Its value is inactive: -1.47%.

For Cc1ccc(C(=O)Nc2cccc(C(F)(F)F)c2)cc1NC(=O)c1nccn1C, which “activity, positive = re-replication” value is on record?
The value was inactive: 37.6%.

Which “activity, positive = re-replication” value does the source give for O=c1c2ccccc2nnn1CSc1nnnn1-c1ccc(O)cc1 here?
Its value is inactive: 20%.

With COc1ccc(OCCSc2nc(-c3ccccc3)cc(=O)[nH]2)cc1 as the compound, how does the Potency read?
The Potency was inconclusive [activator, partial curve, poor fit].

With CC1CCC2(CC1)NC(=O)N(Cc1cccc(C(F)(F)F)c1)C2=O (stereo not given) as the compound, how does the Potency read?
Its Potency is inconclusive [activator, partial curve, poor fit].

With C#CCOCCOCCOCCNc1nc(N2CCN(C(=O)[C@H](CO)n3cc([C@@H](N)C(C)C)nn3)CC2)nc(N2CCN(C(=O)[C@H](CCC(=O)O)n3cc([C@@H](N)CCCCN)nn3)CC2)n1 as the compound, how does the “activity, positive = re-replication” value read?
The value was inactive: 11.5%.

For CCCOC(=O)c1[nH]c2c(c1C)C(=O)CC(c1cccs1)C2 (stereo not given), which Potency is on record?
Its Potency is active: 0.206 µM.

For COc1ccc(C(CNC(=O)Cc2c(F)cccc2Cl)N2CCCCC2)cc1 (stereo not given), which Potency is on record?
Its Potency is inconclusive [activator, single point].

Which Potency does the source give for OC(CNCCc1ccc(C(F)(F)F)cc1)COc1cccc2ccccc12 (stereo not given) here?
Its Potency is active: 20.6 µM.

Which Potency does the source give for C/C(=N\NC(=S)NCc1ccccc1)c1cccs1 here?
Its Potency is inconclusive [activator, single point].

Which “activity, positive = re-replication” value does the source give for COC(=O)[C@@]12CCCCN1[C@H](c1ccc(-c3cccc(Cl)c3)cc1)[C@@H]1C(=O)N(C)C(=O)[C@@H]12 here?
The value was inactive: 3.16%.

For O=c1[nH]n(-c2ccccc2)c(=O)cc1Cl, which “activity, positive = re-replication” value is on record?
The value was inactive: 9.4%.

Which Potency does the source give for CC(C)N(C(=O)c1nn(C)c2c1CSc1ccccc1-2)C1CCCCC1 here?
The Potency was inconclusive [activator, single point].

With O=S(=O)(NC1c2cccc3cccc(c23)C1N1CCNCC1)c1ccc(Cl)cc1 (stereo not given) as the compound, how does the “activity, positive = re-replication” value read?
Its value is inactive: 5.7%.

Which activity, positive = re-replication does the source give for CC(=O)NCC(=O)OCC(=O)Nc1nc(-c2ccccc2)cs1 here?
Its activity, positive = re-replication is inconclusive: -31.3% [activator].

For COc1ccccc1NS(=O)(=O)c1ccc2c(c1)NC(=O)C(C)S2 (stereo not given), which Potency is on record?
The Potency was inconclusive [activator, partial curve].

For O=C(Nc1ccc2c(c1)OCO2)C1CC1, which “activity, positive = re-replication” value is on record?
The value was inactive: -0.898%.

For N#Cc1ccsc1NC(=O)C1CCN(S(=O)(=O)c2cccs2)CC1, which Potency is on record?
Its Potency is inconclusive [activator, partial curve, poor fit].

With COc1ccc(NC(=O)C(Cc2cc(C)cc(C)c2)C(C)C(=O)O)cc1 (stereo not given) as the compound, how does the “activity, positive = re-replication” value read?
The value was inactive: -2.32%.

For Cc1nn(-c2ccccc2)c(C)c1C(=O)OCC(O)=C(C#N)c1nc2ccccc2[nH]1, which Potency is on record?
Its Potency is active: 18.4 µM.

Which Potency does the source give for CC(C)CCNc1nc(N)c([N+](=O)[O-])c(N2CCCCCC2)n1 here?
Its Potency is inconclusive [activator, single point].
